Experimental data published in PubChem BioAssay AID493208 (National Center for Advancing Translational Sciences (NCATS), 2011).
Among all 44,000 compounds or so, about 340 (0.77%) were called active. Not shown: some 5% with an inconclusive outcome. Calls follow the shape of the dose curve; as a rule, active = well fitted inhibition curve with a large enough effect; inconclusive = small, poorly fitted or top-dose-only effect; inactive = flat fitted curve, though single readings scatter. Some of the results follow.

Assay: Acumen qHTS Assay for Inhibitors of the mTORC1 Signaling Pathway in MEF (Tsc2-/-, p53-/-) Cells: Sytravon;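 also: plate controls were DMSO for no effect and rapamycin for full effect; nearly all actives have a fitted effect of over 50% in size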
Settings: phospho-rpS6 immunofluorescence/PI, 24 h; series mostly up to 38.3 µM; activity change, negative = inhibition: at the top concentration
Method in brief: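 Readout is phospho-S6 Alexa 488 signal normalized to PI per well, reported as % active cells with thresholds set from rapamycin (7.5 nM) and DMSO controls. Cells: Tsc2-/-, p53-/- MEFs, 24 hrs compound at 37 C; PI cell number serves as viability.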

Activity change, negative = inhibition, inactive:
COC(=O)c1ccccc1NC(=O)CCc1c(C)nc2c(c(C)nn2-c2ccccc2)c1C -5.55%
COc1ccc(-c2cc(C(=O)N3CCN(c4ccc(F)cc4)CC3)no2)cc1OC -0.966%
COc1ccc(-n2nnc(-c3nc(-c4ccccc4C)no3)c2N)cc1Cl -0.588%
COc1cccc(CNC(=O)CCCn2nc(C)n3c(cc4sccc43)c2=O)c1 -0.64%
Cc1ccc(N2CC(NC(=O)c3ccco3)CC2=O)cc1C (stereo not given) -1.76%
CC(C)COc1ccc(-c2nonc2NC(=O)c2ccc(F)cc2)cc1 -14.8%
O=C(NCCc1ccccc1)c1ccc(CSc2nc3ccncc3n2Cc2ccccc2F)cc1 -0.49%
CCN(C(=O)c1nn(-c2ccc(C)cc2)c(=O)c2c1c1ccccc1n2C)c1ccc(F)cc1 3.2%
O=C(Nc1nnc(S(=O)(=O)N2CCCC2)s1)c1ccccc1F 5.38%
CCOC(=O)c1cnc2c(C)cc(Cl)cc2c1NCCc1ccc(OC)c(OC)c1 -5.35%
O=C(Cn1ncc2c([nH]c3ccccc32)c1=O)NCc1cccc(Cl)c1 4.16%
COc1ccc(NC(=O)C(C)n2c(C)c3cnn(-c4ccccc4)c(=O)c3c2C)cc1Cl (stereo not given) -1.39%
CCOC(=O)c1cc(-c2ccc(F)cc2)n(CCC(=O)NCc2ccccc2OC)c1C -7.24%
O=C(CC1N=C2c3ccccc3N=C(SCc3ccccc3Cl)N2C1=O)NCc1cccs1 (stereo not given) -0.232%
COc1ccc(NC(=O)C(=O)NCC(c2cccnc2)N2CCc3ccccc3C2)cc1 (stereo not given) 6.05%
CCOC(=O)C1CCCN(Cc2cn3c(-c4ccc(Br)cc4)nnc3s2)C1 (stereo not given) -4.97%
CCOc1ccc(NC(=O)Cc2ccc(-n3c(C)nc4cccnc43)cc2)cc1 -8.3%
COc1ccc(C(=O)NNc2ncnc3c2cnn3-c2ccccc2)cc1 10.1%
CC(=O)N1CCC(N(Cc2ccco2)C(=O)Nc2ccc(Br)cc2F)CC1 -5.21%
Cc1ccc(NC(=O)CN2C(=O)c3ccccc3Sc3ccc(C(=O)N4CCCC4)cc32)cc1 -1.63%
O=C(Nc1cc(Cl)ccc1Cl)c1cc(S(=O)(=O)N2CCCc3ccccc32)ccc1F -7.44%
CCN(CC)CCNC(=O)c1[nH]c2ccccc2c1Sc1ccc(Cl)cc1 1.22%
CN(C(=O)c1ccc2c(c1)N(Cc1ccccc1F)C(=O)c1ccccc1S2(=O)=O)C1CCCCC1 -1.5%
COc1ccc(NC(=O)C(NC(=O)/C=C\c2ccc3c(c2)OCO3)c2ccc(OC)cc2)cc1 (stereo not given) 5.82%
Cc1cc2n(n1)CCC(=O)N2Cc1ccc(C(=O)Nc2ccc(Br)c(C)c2)cc1 -0.166%
COC(=O)c1c(NC(=O)COc2c(C)ccc(C)c2C)sc2c1CCC(C)C2 (stereo not given) 1.59%
CC1=C(C(=O)Nc2cccnc2)C(c2ccc(Cl)cc2)n2nc(SCc3ccccc3)nc2N1 (stereo not given) -3.77%
Cc1ccc(-n2nc(C(=O)Nc3cccc(C#N)c3)c3c4ccccc4n(C)c3c2=O)cc1 -0.403%
CCOc1ccc(NC(=O)[C@H](Cc2ccccc2)N2Cc3ccccc3C2=O)cc1 -0.231%
O=S(=O)(Nc1cccc(-c2ccc(N3CCOCC3)nn2)c1)c1ccccc1C(F)(F)F 4.3%
CCN(CC)c1cc2c(cc1F)c(=O)c(S(=O)(=O)c1ccc(C)cc1)cn2Cc1ccc(F)cc1 3.26%
CCCSc1nc2c(c(=O)[nH]1)C(c1ccc(F)cc1F)CC(=O)N2 (stereo not given) 0.178%
O=C(Cn1ncc2ccsc2c1=O)N1CCN(c2ccccc2)CC1 3.79%
CCCN1CCN(c2ncnc3sc(C(=O)Nc4cccc(Cl)c4C)c(C)c23)CC1 0%
O=C(NCCc1ccc(Cl)cc1)c1nc(-c2cccc(F)c2)n2c1CCCCC2 -3.13%
CCOC(=O)c1c(C)c(C(=O)NCc2ccc(Cl)cc2)c(C)n1CC -1.76%
COc1ccc(NC(=O)CSc2nc3c(c(=O)[nH]2)CCC3)cc1 0.515%
CC(C)c1ccccc1Oc1c(C(F)(F)F)oc2c(CN3CCN(C)CC3)c(O)ccc2c1=O -3.12%
Brc1ccc(CN2CCc3nc(N4CCN(c5ncccn5)CC4)ncc3C2)cc1 6.63%
O=C(Cn1c(=O)n(CCc2ccccc2)c(=O)c2c3c(sc21)CCCC3)Nc1ccc(F)c(F)c1 -1.8%
CCCc1nnc(NC(=O)Cc2coc3ccc(C)cc23)s1 3.4%
CCOc1ccccc1Nc1sc(C(=O)c2ccc(Cl)cc2)c(N)c1C(=O)NCCc1ccccc1 -0.889%
Cc1ccccc1NC(=O)CSc1nc2ccccc2c2nc(CCn3c(C)nc4ccccc43)nn12 -8.58%
Cc1ccc(CNC(=O)c2cn(C)c3ccc(S(=O)(=O)N4CCOCC4)cc3c2=O)cc1 -5.01%
COc1ccccc1N1CCN(C(=O)c2cc3c(=O)oc4ccc(C)cc4c3s2)CC1 -4.18%
CCOc1ccc(-c2nc(CNC(=O)Nc3ccccc3)c(C)o2)cc1 0%
COc1ccc(OC)c(S(=O)(=O)Nc2cccc(-c3ccc(N4CCCCCC4)nn3)c2)c1 0.815%
COc1ccc(NCc2cc3ccc(OC)cc3n(CC(=O)Nc3cccc(OC)c3)c2=O)cc1 -9.89%
COc1cc(NC(=O)c2nn(-c3ccc(F)cc3)c(=O)n(C)c2=O)cc(OC)c1OC -7.96%
CCn1c(C(=O)N2CCC(C(=O)NCCCOC)CC2)cc2sccc21 -6.45%
O=C(COCc1cc(-c2cccs2)on1)NCc1cccc(Cl)c1 -5.9%
Cc1cc(C)c(/C=C/c2onc(C)c2S(=O)(=O)N2CCC(C(=O)Nc3ccc(Cl)cc3C)CC2)c(C)c1 1.23%
Cc1ccccc1NC(=O)c1c(NC(=O)C(F)(F)F)sc2c1CCCCC2 7.12%
Cc1cn(S(=O)(=O)c2ccc(F)c(Cl)c2)cn1 5.08%
CC1=C(c2ccc(C)cc2)S(=O)(=O)N(Cc2ccc(C(=O)NCc3ccccc3F)cc2)C1=O -5.32%
Cc1ccc(C(=O)c2sc(Nc3ccc(F)cc3)nc2N)c(C)c1 -10.1%
CC(=O)c1ccc(NC(=O)Cn2c(=O)oc3cc(S(=O)(=O)N4CCCCC4)ccc32)cc1 2.94%
Cc1ccc2c(c1)C(C)(c1ccccc1)CC(C)(C)N2C(=O)c1ccc(F)cc1 (stereo not given) -4.17%
COc1ccc(-c2nc(CNC(=O)NC3CCCCC3)c(C)o2)c(OC)c1 0%
O=C1CCCc2[nH]c(=O)c(-c3nc(-c4cccc([N+](=O)[O-])c4)cs3)cc21 -1.05%
O=C(CCCn1c(=O)[nH]c2ccccc2c1=O)N1CCN(c2ccccc2)CC1 -6.97%
CCOC(=O)c1cc2c(=O)n3ccccc3nc2n(Cc2ccco2)c1=NC(=O)c1ccc(F)cc1 2.05%
O=C(CN1C(=O)COc2ccc(S(=O)(=O)N3CCOCC3)cc21)N1CCN(c2ccc(Cl)cc2)CC1 -15.2%
O=S(=O)(NCCc1cn2ccsc2n1)c1ccc(Cl)cc1 -8.95%
CCCCCCc1cc2cc(-c3cn4c(n3)sc3cc(OC)ccc34)c(=O)oc2cc1O -0.916%
O=C(Nc1cccc(Cl)c1)c1cc(S(=O)(=O)N2CCC3(CC2)OCCO3)ccc1F -19.9%
CCN(CCCNC(=O)Cn1ncc2c3ccccc3n(C)c2c1=O)c1cccc(C)c1 -3.02%
Cc1ccccc1C(=O)n1nc(-c2cccnc2)nc1NCc1ccc(F)cc1 5.09%
COc1cc(OC)c(NC(=O)Cn2cnc3c(nc4n3CCCCC4)c2=O)cc1Cl 2.86%
Cc1cc(OCC(=O)Nc2nc3c(s2)CCCC3)cc(C)c1Cl 0.573%
CCOC(=O)c1ccccc1NC(=O)COc1cc(=O)n(CC)c2ccccc12 -2.46%
CCOc1ccccc1NC(=O)Cn1c(=O)n(Cc2ccccc2)c(=O)c2c3c(sc21)CN(C(C)=O)CC3 -4.71%
O=C(CCC1N=C2c3ccccc3N=C(SCc3ccc(Cl)cc3)N2C1=O)NC1CCCCC1 (stereo not given) 1.28%
Cc1cccc(C)c1NC(=O)Cn1c(=O)cc(C)c2c(C)nn(-c3cccc(Cl)c3C)c21 -2.33%
Cc1ccc(-n2ncc3c(N4CCCCC4)ncnc32)cc1 11.8%
COc1ccc(NC(=O)CC(C)S(=O)(=O)c2ccc3c(c2)NC(=O)CO3)cc1OC (stereo not given) 1.87%
O=C(CN1CCN(C2CCCCC2)C(=O)C1=O)Nc1ccc(Cl)cc1 0.235%
CCC(=O)Nc1ccccc1C(=O)OCc1cc(=O)n2cc(C)sc2n1 9.33%
COc1ccc(OC)c(NC(=O)Cn2c(CCC(=O)O)ccc2-c2ccccc2)c1 5.36%
CC(C)CCN1C(=O)c2ccccc2CC1(C)C(=O)NC1CCCCC1 (stereo not given) -6.24%
CC1CC(=O)N(CC(=O)Nc2ccc(OC(F)(F)F)cc2)c2ccccc2S1 (stereo not given) -11.1%
CCCN1CCN(C(=O)Cn2ncc3c4ccccc4n(Cc4cccc(Cl)c4)c3c2=O)CC1 0.728%
O=C(Nc1c(C(=O)N2CCN(c3ccccc3)CC2)oc2ccccc12)c1ccccc1F -3.29%
Cc1cccc(N(C)C(=O)c2cc3c(=O)oc4ccc(C)cc4c3s2)c1 -4.46%
CCOc1ccc(-n2nc3ccc(NC(=O)c4ccc(C)cc4C)cc3n2)cc1 0.367%
Cc1ccc(CCNC(=O)c2cc3cc(S(=O)(=O)N4CCCCC4)ccc3n2C)cc1 -0.504%
CCN1CCN(CCCNC(=O)c2cnn(-c3ccc(OC)cc3)c2C2CCN(C(=O)OC(C)(C)C)CC2)CC1 -0.758%
COC(=O)c1ccc(C(=O)OC)c(NC(=O)c2cnn3c(C(F)F)cc(-c4ccc(C)cc4)nc23)c1 -16.9%
CC1=Nc2cc(C(=O)NC3CCCC3)ccc2Sc2ccc(Cl)cc21 -20.1%
CCOC(=O)c1ccc(Nc2nc3ccccc3n3c(C)nnc23)cc1 3.08%
CCOC(=O)c1cccc(NC(=O)CC2C(=O)N(c3ccc(F)cc3)C(=O)N2Cc2cccc(OC)c2)c1 (stereo not given) -14.6%
COc1ccc(N(C)S(=O)(=O)c2ccc3c(c2)n(C)c(=O)c(=O)n3C)cc1 -6.08%
CCOc1ccc(-c2noc(CSc3nnc(Cc4ccccc4)n3-c3ccc(F)cc3)n2)cc1 -1.21%
Cc1cccc(N2CCN(c3ncnc4c3cnn4-c3ccc(Cl)cc3)CC2C)c1 (stereo not given) 1.36%
COC(=O)c1scc(-c2ccc(C)cc2)c1S(=O)(=O)N1CCN(c2ccccc2F)CC1 -43.5%
